In all, about 310,000 compounds went through this assay and about 2,200 (0.71%) showed an effect of 50% or more. The effect is printed as a negative number. Some of the results follow.
target: human ether-à-go-go-related gene (hERG) potassium channel (human, UniProt Q12809); experiment: primary screen, population patch clamp on CHO cells stably expressing hERG
Sequence (Q12809 whole entry, looked up): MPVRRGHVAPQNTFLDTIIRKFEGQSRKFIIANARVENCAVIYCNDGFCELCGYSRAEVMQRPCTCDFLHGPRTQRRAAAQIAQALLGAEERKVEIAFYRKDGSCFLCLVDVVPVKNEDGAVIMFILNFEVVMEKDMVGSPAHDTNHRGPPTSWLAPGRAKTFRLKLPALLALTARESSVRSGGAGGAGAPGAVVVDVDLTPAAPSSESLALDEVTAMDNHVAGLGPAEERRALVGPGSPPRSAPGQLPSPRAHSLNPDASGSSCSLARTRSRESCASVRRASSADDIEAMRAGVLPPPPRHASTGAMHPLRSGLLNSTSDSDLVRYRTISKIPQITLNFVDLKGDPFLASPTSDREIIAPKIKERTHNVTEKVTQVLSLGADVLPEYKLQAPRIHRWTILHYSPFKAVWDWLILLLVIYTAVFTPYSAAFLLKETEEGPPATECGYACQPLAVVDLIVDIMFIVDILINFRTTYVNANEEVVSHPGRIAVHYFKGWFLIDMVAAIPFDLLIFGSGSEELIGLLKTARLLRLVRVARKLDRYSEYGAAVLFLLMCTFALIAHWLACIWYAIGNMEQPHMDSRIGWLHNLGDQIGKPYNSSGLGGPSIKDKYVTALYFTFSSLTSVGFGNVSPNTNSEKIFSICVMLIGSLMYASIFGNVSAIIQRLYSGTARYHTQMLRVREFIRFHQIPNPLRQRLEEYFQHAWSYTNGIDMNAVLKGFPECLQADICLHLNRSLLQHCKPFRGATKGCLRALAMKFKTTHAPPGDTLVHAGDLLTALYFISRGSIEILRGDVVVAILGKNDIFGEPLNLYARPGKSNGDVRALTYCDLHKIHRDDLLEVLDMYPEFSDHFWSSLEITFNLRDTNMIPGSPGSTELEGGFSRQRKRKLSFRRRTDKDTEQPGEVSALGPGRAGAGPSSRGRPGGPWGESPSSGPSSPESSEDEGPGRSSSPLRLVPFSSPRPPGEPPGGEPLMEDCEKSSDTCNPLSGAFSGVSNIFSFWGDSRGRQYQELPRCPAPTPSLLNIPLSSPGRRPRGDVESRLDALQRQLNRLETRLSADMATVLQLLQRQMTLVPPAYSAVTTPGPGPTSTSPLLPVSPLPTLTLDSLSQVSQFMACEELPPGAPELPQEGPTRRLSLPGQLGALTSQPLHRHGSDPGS

Compared with `CC(C)NC(=O)NCCCCCCS(C)=O` (centres unmarked), `Cc1oc(-c2cccs2)nc1CS(=O)CC(=O)NCCCOC(C)C` (centres unmarked) is lower in “hERG current change (%, negative = inhibition) at 1uM” value: 10.6% for the first, 1.87% for the second.

Compared with `COc1ccccc1-n1cnc2cc(NS(=O)(=O)c3ccccc3)ccc21`, `CNC(=O)c1cc(NC(=O)CCn2nc(-c3ccccc3)c3ccccc3c2=O)ccc1OC` is higher in “hERG current change (%, negative = inhibition) at 1uM” value: 7.79% for the first, 7.91% for the second.

Compared with `COCCn1c(=S)[nH]c2ncccc2c1=O`, `C=CCn1c(O)c(C=NCCCOc2ccc(CC)cc2)c(=O)[nH]c1=S` is lower in “hERG current change (%, negative = inhibition) at 1uM” value: 13.1% for the first, 9.6% for the second.

First: CCSc1ccccc1C(=O)Nc1cc(C)on1
Second: CCc1noc(C)c1C(=O)N1CCCSC1=Nc1ccccc1
The “hERG current change (%, negative = inhibition) at 1uM” value of the first is lower: 1.78% for the first, 10.3% for the second.

Compared with `NC(=O)CC(NC(=O)Cc1ccc(Br)cc1)c1ccc(N2CCN(c3ccccn3)CC2)c([N+](=O)[O-])c1` (centres unmarked), `O=C(CCc1ccc(S(=O)(=O)NCCc2ccccc2)cc1)Nc1ccc2c(c1)OCO2` is lower in “hERG current change (%, negative = inhibition) at 1uM” value: 17.9% for the first, 17.8% for the second.

Compared with `O=C(Cc1ccccc1Cl)Nc1ccc(S(=O)(=O)Nc2nccs2)cc1`, `Cc1ccnc(NS(=O)(=O)c2ccc(NC(=O)/C=C/c3ccccc3)cc2)n1` is lower in “hERG current change (%, negative = inhibition) at 1uM” value: 18% for the first, 11.9% for the second.

Going from `CCC(=O)NCc1cc(-c2nn(C)c(=O)c3ccccc23)ccc1C` to `CCN(CC)C(=O)CSc1nc(O)c(Cc2ccccc2)c(=O)n1-c1ccccc1C`, the “hERG current change (%, negative = inhibition) at 1uM” value falls from 10.9% to 4.72%.

Going from `CCOC(=O)C1CCC(CNCc2ccccc2C)CC1.Cl` (centres unmarked) to `CCOC(=O)N1CCC(N(CCN(C)C)C(=S)Nc2ccc(F)c(Cl)c2)CC1`, the “hERG current change (%, negative = inhibition) at 1uM” value rises from 9.13% to 12.8%.

Going from `Cc1cccn2c(=O)c3cc(C(=O)NC4CCCCCC4)sc3nc12` to `Cc1cc(C(F)F)nn1CC(=O)NC1CCCCCC1`, the “hERG current change (%, negative = inhibition) at 1uM” value falls from 15.1% to 14.4%.

Compared with `COc1ccc(OC)c(NC(=O)CCC(=O)Nc2nnc(C(F)(F)F)s2)c1`, `CCOc1ccc(NC(=O)CCC(=O)O)cc1` is higher in “hERG current change (%, negative = inhibition) at 1uM” value: 3.57% for the first, 15.4% for the second.

Going from `Cc1nc2ccccc2n1CC(O)COCC1CC=CCC1` (centres unmarked) to `CCCCn1c(CNC(=O)c2cccs2)nc2ccccc21`, the “hERG current change (%, negative = inhibition) at 1uM” value falls from 3.03% to -5.98%.

Going from `CO/N=C\CC(=O)Nc1ccc(F)cc1` to `Cc1ccc(NC(=O)CC2COc3ccccc3O2)cc1` (centres unmarked), the “hERG current change (%, negative = inhibition) at 1uM” value rises from 2.34% to 8.61%.

Going from `CCOC(=O)c1ccc(N2C(=O)c3cccc4c(C(=O)O)ccc(c34)C2=O)cc1` to `CCOc1ccc(N2C(=O)CC(N3CCN(c4ccc(F)cc4)CC3)C2=O)cc1` (centres unmarked), the “hERG current change (%, negative = inhibition) at 1uM” value falls from 13.2% to 6.41%.

Compared with `Cc1cc(C)n(-c2ccc(C(=O)Nc3cccnc3Cl)cc2)n1`, `O=C(Nc1ccc(Br)cc1)c1cccc(N2C(=O)CCC2=O)c1` is higher in “hERG current change (%, negative = inhibition) at 1uM” value: 7.99% for the first, 14.8% for the second.

First: CCOc1cc(N2CCOCC2)c(OCC)cc1NC(=O)CN1C(=O)NC(Cc2ccccc2)C1=O (centres unmarked)
Second: COc1cc2c(C(=O)N3CCN(c4ccccc4F)CC3)cn(C)c(=O)c2cc1OC
The “hERG current change (%, negative = inhibition) at 1uM” value of the first is lower: 0.111% for the first, 0.753% for the second.

Compared with `C=C(C)Cn1c(C2CC(=O)N(Cc3ccccc3)C2)nc2ccccc21` (centres unmarked), `CCn1c(N2CCN(C(=O)c3ccco3)CC2)nc2ccccc21` is lower in “hERG current change (%, negative = inhibition) at 1uM” value: -6.49% for the first, -25.2% for the second.

First: Clc1ccc(Cl)c2sc(N3CCCC3)nc12
Second: S=c1[nH]nc(CN2CCCCC2)n1-c1ccc(Cl)cc1
The “hERG current change (%, negative = inhibition) at 1uM” value of the first is lower: 9.26% for the first, 12.6% for the second.

Compared with `Cc1ccc(N2C(=O)c3ccccc3C2(O)c2ncc[nH]2)cc1` (centres unmarked), `O=c1c2ccccc2nnn1-c1ccc(Br)cc1` is lower in “hERG current change (%, negative = inhibition) at 1uM” value: 17.7% for the first, 14.5% for the second.

Going from `Cc1cc(N2CCCCC2)nc(N2CCCCC2)n1` to `COC(=O)Cn1ccc2cc(S(=O)(=O)N3CCCCC3)ccc21`, the “hERG current change (%, negative = inhibition) at 1uM” value rises from 2.91% to 15.2%.

Compared with `CC(O)CNc1nc2c(c(=O)n(Cc3ccc(Cl)c(Cl)c3)c(=O)n2C)n1C` (centres unmarked), `CCc1ccc(Nc2oc(C)cc(=O)c2C(C)=O)cc1` is lower in “hERG current change (%, negative = inhibition) at 1uM” value: 12% for the first, 8.18% for the second.

Compared with `C=CCOc1ccc2nc(NC(=O)OC)[nH]c2c1`, `COc1ccc(CNC(=O)c2cccc(N3CCCC3=O)c2)cc1` is higher in “hERG current change (%, negative = inhibition) at 1uM” value: -1.78% for the first, 4.69% for the second.

Compared with `COc1ccc(N=C2SC(CC(=O)Nc3cccc(Cl)c3)C(=O)N2Cc2ccco2)cc1` (centres unmarked), `COc1ccc(Nc2nc(-c3cccc([N+](=O)[O-])c3)nc3ccccc23)cc1` is lower in “hERG current change (%, negative = inhibition) at 1uM” value: 4.66% for the first, 4.14% for the second.

First: Cc1ccc(C2=NNC(C(O)C(O)C(O)CO)S2)cc1 (centres unmarked)
Second: COc1nc(-c2ccc(Cl)cc2)nnc1C
The “hERG current change (%, negative = inhibition) at 1uM” value of the first is higher: 9.85% for the first, 8.46% for the second.

Compared with `COc1ccc(C(=O)N2CCN(c3ccccc3)CC2)cc1S(=O)(=O)N1CCCC1`, `CN1CCN(c2ccc3c(c2)S(=O)(=O)c2ccccc2C3=O)CC1` is higher in “hERG current change (%, negative = inhibition) at 1uM” value: 1.84% for the first, 9.19% for the second.

First: COc1ccc(CN(C)C(=O)C23CC4CC(CC(C4)C2)C3)c(OC)c1
Second: COCCOC(=O)c1c(C)n(C)c2ccc(OC(=O)N(C)C)cc12
The “hERG current change (%, negative = inhibition) at 1uM” value of the first is lower: 6.56% for the first, 9.96% for the second.

Going from `O=C(Nc1cccc(-c2cn3cccnc3n2)c1)Nc1ccccc1F` to `O=C(NNc1ccccc1F)c1ccccc1`, the “hERG current change (%, negative = inhibition) at 1uM” value falls from 6.45% to 2.87%.

First: COc1cccc(-c2nc(CS(=O)(=O)CC(=O)Nc3cc(F)ccc3F)c(C)o2)c1
Second: COCCNc1cc(-c2ccccc2)nc2cc(-c3cccc(F)c3)nn12
The “hERG current change (%, negative = inhibition) at 1uM” value of the first is higher: 17.3% for the first, -0.755% for the second.

Going from `CC(C)CCNC(=O)CN1N=C(c2ccc(Cl)cc2)CCC1=O` to `CCN1CCN(C(=O)COc2ccc(S(=O)(=O)Nc3ccc(Cl)cc3)cc2)CC1`, the “hERG current change (%, negative = inhibition) at 1uM” value rises from 4.85% to 12.1%.

First: CC(=O)Nc1ccc(S(=O)(=O)NCc2nc(-c3ccccc3C)no2)cc1
Second: O=C(O)c1ccc(S(=O)(=O)Cc2ccccc2)cc1
The “hERG current change (%, negative = inhibition) at 1uM” value of the first is higher: 11.8% for the first, 6.4% for the second.

Compared with `CCOC(=O)c1c(C)[nH]c(C)c1C(=O)COC(=O)CCOc1ccccc1OC`, `CCOc1ccccc1NC(=O)NC(=O)N(C)S(=O)(=O)c1ccc(C)cc1` is lower in “hERG current change (%, negative = inhibition) at 1uM” value: 10.2% for the first, 9.85% for the second.

Going from `Cc1ccc(/C=N/NC(=O)c2c[nH]c3ccccc23)s1` to `Cc1ccc(C(=O)NC(=S)Nc2ccccc2C(F)(F)F)c(C)c1`, the “hERG current change (%, negative = inhibition) at 1uM” value falls from 13.5% to 2.66%.

Compared with `O=C(CNC(=S)N(CCCN1CCOCC1)Cc1cccs1)NC1CCCCCCC1`, `O=C(CCC(=O)NC1CCCCC1)NCc1ccc(F)cc1` is higher in “hERG current change (%, negative = inhibition) at 1uM” value: -23.1% for the first, 9.13% for the second.

First: CC(=O)OC(C[N+]1(C)CCCCCC1)c1ccccc1.[I-] (centres unmarked)
Second: O=C1CN(C(=O)/C=C/c2ccccc2)CCN1
The “hERG current change (%, negative = inhibition) at 1uM” value of the first is lower: 16.4% for the first, 17% for the second.

Going from `CCOC(=O)C1=C(CBr)NC(=O)NC1C` (centres unmarked) to `CCOC(=O)c1c(/N=C/c2cc(C)ccc2O)sc2c1CCN(C)C2`, the “hERG current change (%, negative = inhibition) at 1uM” value falls from 14.1% to 11.6%.

Going from `O=C(CN1C(=O)/C(=C/c2cccc(Br)c2)SC1=S)NCCCN1CCOCC1` to `COCCCNC(=O)CC(NS(=O)(=O)c1ccc(C)cc1)c1ccco1` (centres unmarked), the “hERG current change (%, negative = inhibition) at 1uM” value rises from 7.47% to 23.8%.

Compared with `CCOc1cc(S(=O)(=O)Nc2ccc(Cl)cn2)ccc1F`, `CCOCCCN1CN(S(=O)(=O)c2ccc(Cl)cc2)c2nc3ccccc3nc21` is lower in “hERG current change (%, negative = inhibition) at 1uM” value: 12.2% for the first, 4.92% for the second.

Going from `C=CCNc1oc(-c2cccs2)nc1S(=O)(=O)c1ccccc1` to `C#CCn1c(S(=O)(=O)Cc2ccc(F)cc2)nc(-c2ccccc2)c1-c1ccccc1`, the “hERG current change (%, negative = inhibition) at 1uM” value rises from -4.58% to -4.44%.

First: Cc1ccc(NC(=O)NC(=O)CN2CCC(C(N)=O)CC2)c(C)c1
Second: O=C(Nc1ccc(Cl)cc1)C1CCN(C(=O)c2cccs2)CC1
The “hERG current change (%, negative = inhibition) at 1uM” value of the first is higher: 11.2% for the first, 3.69% for the second.

Compared with `O=C(N/N=C/c1ccco1)c1cc(C2CC2)[nH]n1`, `O=C(O)c1ccc2c(c1)ncn2C1CCCC1` is higher in “hERG current change (%, negative = inhibition) at 1uM” value: 6.81% for the first, 8.61% for the second.

Compared with `Cc1cccc(NC(=O)CSc2nc(N)cc(N)n2)c1`, `Cc1ccc(NC(=O)CCN2C(=O)c3ccncc3C2=O)cc1` is higher in “hERG current change (%, negative = inhibition) at 1uM” value: 8.66% for the first, 14.7% for the second.

Going from `Cc1cc(C)cc(Nc2c3c(nc4ncnn24)CCC3)c1.Cl` to `Cc1nc2ncnn2c(N2CCC(C(=O)NCC3CCCO3)CC2)c1Cc1ccccc1` (centres unmarked), the “hERG current change (%, negative = inhibition) at 1uM” value falls from 3.81% to -4.94%.

First: CC(C)(C)C1CCc2onc(C(=O)O)c2C1 (centres unmarked)
Second: Cc1ccccc1NS(=O)(=O)c1ccc(C(=O)N2CCCC(C(F)(F)F)C2)cc1 (centres unmarked)
The “hERG current change (%, negative = inhibition) at 1uM” value of the first is higher: 21% for the first, 8.41% for the second.

First: COc1cc(/C=N/NC(=O)c2ccc(NS(=O)(=O)c3cccs3)cc2)cc(OC)c1O
Second: COC(=O)CSc1nnc(CNC(=O)c2ccc(S(=O)(=O)N(C)C)cc2)n1C
The “hERG current change (%, negative = inhibition) at 1uM” value of the first is lower: 12.1% for the first, 12.9% for the second.

Going from `CCc1nnc(NC(=O)c2cccnc2)s1` to `Cc1ccccc1CN1CCC(n2nccc2NC(=O)c2ccc3c(c2)OCO3)CC1`, the “hERG current change (%, negative = inhibition) at 1uM” value rises from 8.17% to 9.88%.

Compared with `Cc1ccc(S(=O)(=O)c2c(C)cc(C)nc2Oc2cccc(C)c2C)cc1`, `CC(=O)Nc1cc(C(=O)OC(C(=O)c2ccccc2)c2ccccc2)ccc1C` (centres unmarked) is higher in “hERG current change (%, negative = inhibition) at 1uM” value: 7.3% for the first, 9.32% for the second.

First: COC(=O)C1=C(c2ccc(OC(F)(F)F)cc2)C[C@@H]2CC[C@H]1N2C(=O)NCc1ccc(F)cc1
Second: Cc1ccccc1OCCOc1ccccc1C=C(C#N)C#N
The “hERG current change (%, negative = inhibition) at 1uM” value of the first is lower: -8.39% for the first, 7.81% for the second.
